In assay [1] the target is FLAG-VCF1 isoform 2 (human) (UniProt Q969W3). Kind of assay: co-IP; anti-FLAG (M2 agarose) immunoprecipitation from lysates of HEK293T cells ectopically expressing FLAG-VCF1/2; lysis buffer 50 mM Tris-HCl pH 7.6, 150 mM NaCl, 2 mM MgCl2, 1% NP40, 10% glycerol, 1 mM DTT; overnight at 4°C; immunoblot of endogenous p97 and cofactors. Background: In western blotting, separated proteins are transferred to a membrane and probed.

Protein sequences, listed by entry. Tags and fused reporters are not part of them. Lines headed by an entry give the natural chain unless they say otherwise; changes in a name come on top. Chains listed by the source or under a name are the forms on record and can include a tag or linker.
UniProt Q969W3: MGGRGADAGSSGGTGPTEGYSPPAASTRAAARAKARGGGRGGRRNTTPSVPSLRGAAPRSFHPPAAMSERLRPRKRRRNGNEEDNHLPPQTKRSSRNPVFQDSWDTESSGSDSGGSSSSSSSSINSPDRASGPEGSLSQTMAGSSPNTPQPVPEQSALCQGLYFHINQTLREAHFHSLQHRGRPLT
GST-VCF1 isoform 1 (Q969W3, form named): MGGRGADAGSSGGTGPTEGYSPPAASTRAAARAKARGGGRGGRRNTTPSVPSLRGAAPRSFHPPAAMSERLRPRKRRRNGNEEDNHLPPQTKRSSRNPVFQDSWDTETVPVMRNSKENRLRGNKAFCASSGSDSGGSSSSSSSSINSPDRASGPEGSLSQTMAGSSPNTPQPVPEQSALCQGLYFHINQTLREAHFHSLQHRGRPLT
UniProt Q9UNN5: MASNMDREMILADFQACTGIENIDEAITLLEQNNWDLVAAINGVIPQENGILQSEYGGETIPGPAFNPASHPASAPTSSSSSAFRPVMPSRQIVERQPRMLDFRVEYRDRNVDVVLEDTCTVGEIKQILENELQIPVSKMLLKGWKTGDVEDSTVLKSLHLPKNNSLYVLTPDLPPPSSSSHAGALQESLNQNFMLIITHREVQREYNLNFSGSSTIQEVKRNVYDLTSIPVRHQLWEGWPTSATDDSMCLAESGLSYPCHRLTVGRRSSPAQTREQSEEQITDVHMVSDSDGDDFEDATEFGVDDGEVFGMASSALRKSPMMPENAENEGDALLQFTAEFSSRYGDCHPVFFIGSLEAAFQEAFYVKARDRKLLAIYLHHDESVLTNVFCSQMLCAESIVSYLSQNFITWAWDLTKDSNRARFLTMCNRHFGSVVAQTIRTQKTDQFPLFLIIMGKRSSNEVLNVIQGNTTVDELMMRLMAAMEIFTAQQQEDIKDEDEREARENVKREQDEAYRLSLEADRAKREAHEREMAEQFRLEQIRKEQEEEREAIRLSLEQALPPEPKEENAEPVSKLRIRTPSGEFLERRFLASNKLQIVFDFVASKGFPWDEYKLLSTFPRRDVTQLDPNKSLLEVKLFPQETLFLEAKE

The target of assay [2] is FLAG-VCF1 isoform 1 (human) (UniProt Q969W3). Described as above.
Assay [3] concerns the target GST-VCF1 isoform 1 (human) (UniProt Q969W3). The experiment in a line: pull-down; 0.76 nmole GST fusion immobilised on 10 µl glutathione sepharose beads; 0.2 nmole (monomer) p97 or 0.5 nmole His6-FAF1 (or other purified p97 cofactors) in TBS, 2 mM DTT, 1% Triton X-100; SDS-PAGE with Coomassie or 2,2,2-trichloroethanol staining, FAF1 immunoblot; both purified.
For assay [4], the target named is GST-VCF1 isoform 2 (human) (UniProt Q969W3). Described as above.
Assay [5] concerns the target T1, GST-VCF2 isoform 3 (human) (UniProt Q5XKR9).
T1 sequence: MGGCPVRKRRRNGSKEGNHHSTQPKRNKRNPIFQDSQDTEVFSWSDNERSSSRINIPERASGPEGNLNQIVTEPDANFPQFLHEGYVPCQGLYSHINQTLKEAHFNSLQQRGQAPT
Described as above.

In assay [6] the target is T2, FLAG-VCF2 isoform 3 (human) (UniProt Q5XKR9).
T2 sequence: T1 sequence
Kind of assay: co-IP; anti-FLAG (M2 agarose) immunoprecipitation from lysates of HEK293T cells ectopically expressing FLAG-VCF1/2; lysis buffer 50 mM Tris-HCl pH 7.6, 150 mM NaCl, 2 mM MgCl2, 1% NP40, 10% glycerol, 1 mM DTT; overnight at 4°C; immunoblot of endogenous p97 and cofactors.

The target in assay [7] is T3, biotinylated peptide spanning the conserved C-terminal alpha-helix and flanking residues of VCF1 (C180-G203 of isoform 1) (human).
T3 sequence (peptide, biotin on the N-terminus): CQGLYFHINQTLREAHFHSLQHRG
The experiment in a line: pull-down; 5 nmole N-terminally biotinylated peptide immobilised on 10 µl streptavidin sepharose beads; 0.2 nmole (monomer) p97 variants in TBS, 2 mM DTT, 0.1% Triton X-100; SDS-PAGE, Coomassie staining; both purified.

These are yes or no findings as the source states them, for the method shown. For some assays here: Binding seen in cells or lysates may run through a third protein. Some results given as binding are weak or reduced against the parent protein; the word gives no strength. For some assays here: Where a sequence is shown, tags or fusion partners need not be part of it.

Consider “FAF1, endogenous (from UniProt Q9UNN5 1-650)”, for which the binding result in assay [1] and in assay [2] was “binds” in each case.
With His6-FAF1 (from UniProt Q9UNN5 1-650), the binding entry was “binds” in assay [3], “binds” in assay [4] and “no binding (tested: 0.5 nmole His6-FAF1)” in assay [5].
Turning to “p97, endogenous (from UniProt P55072 1-806)”, in assay [6], the binding result is listed as “binds”.
As to “p97, wild type, full length, recombinant (from UniProt P55072 1-806)”, the binding entry in assay [7] and in assay [5] was “binds” throughout.
